# PubChem BioAssay (Tox21)
# This list was built around the results that the source calls inconclusive (neither active nor inactive); the mix of calls is not that of the screen. For some of these results: No potency is given beside an inconclusive call; the fits are too rough. Calls of active or inactive are those of the source. Calls come from the whole dose curve; as a rule, active = well fitted curve in the direction sought with a large enough effect in the repeat runs; inconclusive = weak or mixed curves; inactive = no such curve, though single readings can be large; an effect the other way counts as inactive or inconclusive.
# Assays:
# [1] = Caspase-3/7 induction in HepG2 cells by small molecules, qHTS cell viability counter screen (AID 1346981); note: nearly all actives have a fitted effect of over 30% in size; note: potency is the fitted concentration of half-maximal effect
# In short: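 Steps: seed 2,000 HepG2 cells per well; incubate 5 hr at 37 C; pin-add compounds in DMSO; incubate 16 hr; add CellTiter-Fluor; after 1 hr at 37 C and 5% CO2, read fluorescence.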
# [2] = molecular target: Cytochrome P450 2C19 (Homo sapiens) (UniProt P33261); assay: Cytochrome P450 Family 2 Subfamily C Member 19 (CYP2C19) small molecule antagonists: luciferase reporter qHTS assay (AID 1671197); note: potency is the fitted concentration of half-maximal effect; nearly all actives have a fitted effect of over 65% in size
# UniProt P33261, sequence (P33261 whole entry, looked up): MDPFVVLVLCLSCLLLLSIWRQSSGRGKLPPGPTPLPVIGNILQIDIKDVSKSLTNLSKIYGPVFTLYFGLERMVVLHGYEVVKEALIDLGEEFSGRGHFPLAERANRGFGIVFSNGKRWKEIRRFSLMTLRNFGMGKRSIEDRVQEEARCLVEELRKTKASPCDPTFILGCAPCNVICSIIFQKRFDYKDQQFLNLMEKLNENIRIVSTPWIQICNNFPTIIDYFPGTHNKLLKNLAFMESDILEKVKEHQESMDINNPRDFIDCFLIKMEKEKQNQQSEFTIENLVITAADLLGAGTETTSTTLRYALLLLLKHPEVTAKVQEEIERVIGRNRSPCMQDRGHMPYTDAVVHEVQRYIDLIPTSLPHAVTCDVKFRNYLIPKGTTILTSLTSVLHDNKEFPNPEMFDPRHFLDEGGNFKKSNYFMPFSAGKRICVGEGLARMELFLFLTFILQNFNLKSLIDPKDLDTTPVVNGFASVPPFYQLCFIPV
# In short: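 Quantitative high-throughput screen of the Tox21 library using CYP2C19 with proluciferin substrate. Reaction: NADPH regeneration, 37C, 1 h, after 10 min compound preincubation at room temperature. Readout: luminescence.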
# [3] = molecular target: Cytochrome P450 1A2 (Homo sapiens) (UniProt P05177); assay: Cytochrome P450 Family 1 Subfamily A Member 2 (CYP1A2) small molecule antagonists: luciferase reporter qHTS assay (AID 1671199); note: nearly all actives have a fitted effect of over 50% in size; note: potency is the fitted concentration of half-maximal effect
# UniProt P05177, sequence (P05177 whole entry, looked up): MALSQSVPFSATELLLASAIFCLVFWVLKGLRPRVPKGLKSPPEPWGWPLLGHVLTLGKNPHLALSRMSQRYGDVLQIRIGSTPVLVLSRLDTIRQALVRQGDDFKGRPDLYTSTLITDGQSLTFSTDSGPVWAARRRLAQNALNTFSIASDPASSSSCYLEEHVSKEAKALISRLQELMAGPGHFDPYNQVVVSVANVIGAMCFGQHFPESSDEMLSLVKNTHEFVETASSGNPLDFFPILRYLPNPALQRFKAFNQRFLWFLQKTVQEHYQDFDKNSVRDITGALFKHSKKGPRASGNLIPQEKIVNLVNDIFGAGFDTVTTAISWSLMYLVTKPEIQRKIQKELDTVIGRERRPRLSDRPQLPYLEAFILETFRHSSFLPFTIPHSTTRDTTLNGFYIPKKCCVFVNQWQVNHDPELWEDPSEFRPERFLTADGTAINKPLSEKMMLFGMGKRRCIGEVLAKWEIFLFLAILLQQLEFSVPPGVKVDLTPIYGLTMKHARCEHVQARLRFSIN
# In short: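 Inhibition of CYP1A2 conversion of proluciferin to luciferin, detected by luminescence. Reaction run 1 h at room temperature with NADPH regeneration after brief compound preincubation.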
# [4] = molecular target: Cytochrome P450 2C9 (Homo sapiens) (UniProt P11712); assay: Cytochrome P450 Family 2 Subfamily C Member 9 (CYP2C9) small molecule antagonists: luciferase reporter qHTS assay (AID 1671198); note: potency is the fitted concentration of half-maximal effect; nearly all actives have a fitted effect of over 50% in size
# UniProt P11712, sequence (P11712 whole entry, looked up): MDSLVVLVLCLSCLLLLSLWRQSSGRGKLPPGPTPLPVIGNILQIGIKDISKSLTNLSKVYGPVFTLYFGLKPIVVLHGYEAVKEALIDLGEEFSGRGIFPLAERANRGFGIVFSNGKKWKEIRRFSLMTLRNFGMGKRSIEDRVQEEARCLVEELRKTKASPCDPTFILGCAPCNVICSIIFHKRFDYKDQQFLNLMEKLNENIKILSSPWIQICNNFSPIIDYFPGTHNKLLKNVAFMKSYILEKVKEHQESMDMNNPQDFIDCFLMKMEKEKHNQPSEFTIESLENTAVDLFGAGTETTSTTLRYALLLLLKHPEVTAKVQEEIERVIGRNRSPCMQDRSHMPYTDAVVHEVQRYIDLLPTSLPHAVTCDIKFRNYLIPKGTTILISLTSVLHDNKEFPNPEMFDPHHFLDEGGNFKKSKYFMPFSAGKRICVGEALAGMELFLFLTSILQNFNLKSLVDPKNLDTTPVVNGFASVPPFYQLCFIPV
# In short: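 CYP2C9 activity was measured with a P450-Glo proluciferin substrate. Enzyme–substrate mix was held with compound for 10 min at room temperature, then NADPH regeneration solution was added for 1 h at 37C. Luciferin product was read as luminescence.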
# [5] = molecular target: Nuclear receptor subfamily 1 group I member 2 (Rattus norvegicus) (UniProt Q9R1A7); assay: Rat pregnane X receptor (rPXR) activation by small molecules, qHTS assay (AID 1346983); conditions: rPXR luciferase reporter cells, One-Glo luminescence, 24 h; max activation: active compounds read high; note: potency is the fitted concentration of half-maximal effect; nearly all actives have a fitted effect of over 20% in size
# UniProt Q9R1A7, sequence (Q9R1A7 whole entry, looked up): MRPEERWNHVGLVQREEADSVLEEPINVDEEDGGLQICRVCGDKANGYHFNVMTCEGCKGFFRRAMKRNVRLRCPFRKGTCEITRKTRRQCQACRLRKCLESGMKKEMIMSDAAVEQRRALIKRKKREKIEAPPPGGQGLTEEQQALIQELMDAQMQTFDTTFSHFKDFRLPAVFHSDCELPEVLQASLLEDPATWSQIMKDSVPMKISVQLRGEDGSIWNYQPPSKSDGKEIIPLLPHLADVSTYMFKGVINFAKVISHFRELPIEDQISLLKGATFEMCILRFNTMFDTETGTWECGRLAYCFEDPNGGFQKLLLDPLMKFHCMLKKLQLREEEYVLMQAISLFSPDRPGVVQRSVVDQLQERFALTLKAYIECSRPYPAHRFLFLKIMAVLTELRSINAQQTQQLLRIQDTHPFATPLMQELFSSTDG
# In short: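 Cell-based rPXR luciferase reporter assay, 2,000 cells per well, rested 5hr at 37 C before compound addition in DMSO, then 24 hr at 37 C. One-Glo reagent was added and luminescence read after 30 min at room temperature.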
# [6] = molecular target: Nuclear receptor subfamily 1 group I member 2 (Homo sapiens) (UniProt O75469); assay: Human pregnane X receptor (PXR) activation by small molecules, qHTS assay (AID 1346985); note: potency is the fitted concentration of half-maximal effect; nearly all actives have a fitted effect of over 40% in size
# In short: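 DPX-2 cells (HepG2 co-transfected with a PXR response element and a CYP3A4-promoter luciferase construct) were seeded at 2,000 per well, rested 5 hr at 37C, then exposed to DMSO-dissolved compounds for 24 hr. Activation was read as luciferase luminescence.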
# [7] = molecular target: Nuclear receptor subfamily 1 group I member 2 (Homo sapiens) (UniProt O75469); assay: Human pregnane X receptor (PXR) small molecule agonists, qHTS assay (AID 1346982); note: nearly all actives have a fitted effect of over 35% in size; note: potency is the fitted concentration of half-maximal effect
# In short: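 Agonist mode qHTS: PXR-Luc HepG2 cells plated 5 hr before DMSO-dissolved compounds were pinned in, cultured 24 hr at 37 C, 5% CO2; ONE-Glo luminescence readout.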
# [8] = molecular target: Cytochrome P450 2D6 (Homo sapiens) (UniProt P10635); assay: Cytochrome P450 Family 2 Subfamily D Member 6 (CYP2D6) small molecule antagonists: luciferase reporter qHTS assay (AID 1671196); note: series mostly up to about 120 µM; nearly all actives have a fitted effect of over 50% in size
# UniProt P10635, sequence (P10635 whole entry, looked up): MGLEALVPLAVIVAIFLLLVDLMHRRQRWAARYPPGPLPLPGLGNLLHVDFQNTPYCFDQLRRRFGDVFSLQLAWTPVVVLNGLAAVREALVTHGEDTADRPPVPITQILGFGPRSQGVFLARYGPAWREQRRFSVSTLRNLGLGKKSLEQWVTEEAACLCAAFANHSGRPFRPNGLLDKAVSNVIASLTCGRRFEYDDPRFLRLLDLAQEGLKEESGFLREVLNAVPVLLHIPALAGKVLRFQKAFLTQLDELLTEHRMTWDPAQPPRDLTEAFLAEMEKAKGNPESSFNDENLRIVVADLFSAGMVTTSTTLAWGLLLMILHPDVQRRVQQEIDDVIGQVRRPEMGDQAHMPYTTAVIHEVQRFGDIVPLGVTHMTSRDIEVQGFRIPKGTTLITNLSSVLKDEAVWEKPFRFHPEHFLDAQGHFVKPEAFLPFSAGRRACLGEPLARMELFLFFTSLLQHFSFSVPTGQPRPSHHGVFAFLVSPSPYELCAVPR
# In short: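 P450-Glo format: CYP2D6 converts a proluciferin substrate to luciferin in an NADPH-driven reaction lasting 1 h at room temperature. Light output, proportional to CYP2D6 activity, reflects interference by test chemicals.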
# Tags give direction and shape of the fitted curve.
smiles,measurement,setting,value
CCCCC(=O)O,Potency,[1],"inconclusive [rising, partial curve, poor fit]"
same,Potency,[2],inconclusive [inhibitor]
same,Potency,[3],inactive
CC(=O)N(CC(=O)N(C)C)c1ccccc1,Potency,[1],inactive
same,Potency,[4],"inconclusive [inhibitor, partial curve, poor fit]"
CCOC(=O)c1cnc2c(cnn2CC)c1NN=C(C)C,Potency,[5],"inconclusive [activator, partial curve]"
same,Potency,[4],"inconclusive [inhibitor, full curve]"
CCN(CC)CCOC(=O)C1(c2ccccc2)CCCC1,Potency,[6],"inconclusive [activator, full curve, poor fit]"
same,Potency,[2],"inconclusive [inhibitor, single point]"
N[C@@H](Cc1c[nH]c2ccc(O)cc12)C(=O)O,Potency,[2],"inconclusive [inhibitor, single point]"
Cl/C(=C\n1cncn1)c1ccc(Cl)cc1Cl,Potency,[4],active: 15.5 µM
CCCCN(CCO)CCCC,Potency,[7],"inconclusive [activator, partial curve, poor fit]"
same,Potency,[2],"inconclusive [inhibitor, single point]"
same,Potency,[3],"inconclusive [inhibitor, partial curve]"
Nc1ccn([C@@H]2O[C@H](CO)[C@@H](O)[C@@H]2O)c(=O)n1,Potency,[7],inactive
same,Potency,[4],"inconclusive [inhibitor, partial curve, poor fit]"
CCCC(C)C,Potency,[7],"inconclusive [activator, single point]"
same,Potency,[8],inactive
same,Potency,[4],"inconclusive [inhibitor, partial curve]"
